Assay results reported in the supplement of paper PMC8728848.
Some of the results follow.

What was measured:
Test in all cases: glycan array binding signal (z-score within array); higher = stronger binding
Settings in all cases: glycan notation: IUPAC condensed, linker removed
[1] = target: Fuc(a1-2)Gal(b1-4)[Fuc(a1-3)]GlcNAc
Outline: (§1)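 Negative Z-scores can be read as non-binding. The Z-score is calculated within each array and then averaged across arrays of one protein sequence at different concentrations or buffers and across linkers. Arrays, 3228 in all, were curated from the Consortium for Functional Glycomics database and kept only where the protein sequence was available.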

[2] = target: Fuc(a1-2)Gal(b1-4)[Fuc(a1-3)]GlcNAc(b1-2)Man(a1-3)[Fuc(a1-2)Gal(b1-4)[Fuc(a1-3)]GlcNAc(b1-2)Man(a1-6)]Man(b1-4)GlcNAc(b1-4)[Fuc(a1-6)]GlcNAc
Outline: as §1

[3] = target: Fuc(a1-2)Gal(b1-4)[Fuc(a1-3)]GlcNAc(b1-2)[Fuc(a1-2)Gal(b1-4)[Fuc(a1-3)]GlcNAc(b1-4)]Man(a1-3)[Fuc(a1-2)Gal(b1-4)[Fuc(a1-3)]GlcNAc(b1-2)Man(a1-6)]Man(b1-4)GlcNAc(b1-4)GlcNAc
Outline: as §1

[4] = target: Fuc(a1-2)Gal(b1-4)[Fuc(a1-3)]GlcNAc(b1-3)Gal(b1-4)[Fuc(a1-3)]GlcNAc
Outline: as §1

[5] = target: Fuc(a1-2)Gal(b1-4)[Fuc(a1-3)]GlcNAc(b1-3)Gal(b1-4)[Fuc(a1-3)]GlcNAc(b1-3)Gal(b1-4)[Fuc(a1-3)]GlcNAc
Outline: as §1

[6] = target: Fuc(a1-2)Gal(b1-4)[Fuc(a1-3)]GlcNAc(b1-3)GalNAc
Outline: as §1

[7] = target: Fuc(a1-2)Gal(b1-4)[Fuc(a1-3)]GlcNAc(b1-3)[Neu5Ac(a2-6)Gal(b1-4)GlcNAc(b1-6)]Gal(b1-4)Glc
Outline: as §1

[8] = target: Fuc(a1-2)Gal3S(b1-4)GlcNAc
Outline: as §1

[9] = target: Fuc(a1-2)Gal6S(b1-3)GlcNAc
Outline: as §1

[10] = target: Fuc(a1-2)Gal6S(b1-3)GlcNAc6S
Outline: as §1

[11] = target: Fuc(a1-2)Gal6S(b1-4)Glc
Outline: as §1

[12] = target: Fuc(a1-2)Gal6S(b1-4)Glc6S
Outline: as §1

[13] = target: Fuc(a1-2)[Gal(a1-3)]Gal
Outline: as §1

[14] = target: Fuc(a1-2)[Gal(a1-3)]Gal(b1-3)GalNAc
Outline: as §1

[15] = target: Fuc(a1-2)[Gal(a1-3)]Gal(b1-3)GalNAc(b1-3)Gal(a1-4)Gal(b1-4)Glc
Outline: as §1

[16] = target: Fuc(a1-2)[Gal(a1-3)]Gal(b1-3)GlcNAc
Outline: as §1

[17] = target: Fuc(a1-2)[Gal(a1-3)]Gal(b1-3)GlcNAc(b1-2)Man(a1-3)[Fuc(a1-2)[Gal(a1-3)]Gal(b1-3)GlcNAc(b1-2)Man(a1-6)]Man(b1-4)GlcNAc(b1-4)GlcNAc
Outline: as §1

[18] = target: Fuc(a1-2)[Gal(a1-3)]Gal(b1-3)GlcNAc(b1-2)Man(a1-3)[Fuc(a1-2)[Gal(a1-3)]Gal(b1-3)GlcNAc(b1-2)Man(a1-6)]Man(b1-4)GlcNAc(b1-4)[Fuc(a1-6)]GlcNAc
Outline: as §1

[19] = target: Fuc(a1-2)[Gal(a1-3)]Gal(b1-3)GlcNAc(b1-3)GalNAc
Outline: as §1

[20] = target: Fuc(a1-2)[Gal(a1-3)]Gal(b1-3)GlcNAc(b1-6)GalNAc
Outline: as §1

[21] = target: Fuc(a1-2)[Gal(a1-3)]Gal(b1-4)Glc
Outline: as §1

[22] = target: Fuc(a1-2)[Gal(a1-3)]Gal(b1-4)GlcNAc
Outline: as §1

[23] = target: Fuc(a1-2)[Gal(a1-3)]Gal(b1-4)GlcNAc(b1-2)Man
Outline: as §1

[24] = target: Fuc(a1-2)[Gal(a1-3)]Gal(b1-4)GlcNAc(b1-2)Man(a1-3)[Fuc(a1-2)[Gal(a1-3)]Gal(b1-4)GlcNAc(b1-2)Man(a1-6)]Man(b1-4)GlcNAc(b1-4)GlcNAc
Outline: as §1

[25] = target: Fuc(a1-2)[Gal(a1-3)]Gal(b1-4)GlcNAc(b1-2)Man(a1-3)[Fuc(a1-2)[Gal(a1-3)]Gal(b1-4)GlcNAc(b1-2)Man(a1-6)]Man(b1-4)GlcNAc(b1-4)[Fuc(a1-6)]GlcNAc
Outline: as §1

[26] = target: Fuc(a1-2)[Gal(a1-3)]Gal(b1-4)GlcNAc(b1-3)GalNAc
Outline: as §1

[27] = target: Fuc(a1-2)[Gal(a1-3)]Gal(b1-4)GlcNAc(b1-3)[Fuc(a1-2)[Gal(a1-3)]Gal(b1-4)GlcNAc(b1-6)]GalNAc
Outline: as §1

[28] = target: Fuc(a1-2)[Gal(a1-3)]Gal(b1-4)GlcNAc(b1-6)GalNAc
Outline: as §1

[29] = target: Fuc(a1-2)[Gal(a1-3)]Gal(b1-4)[Fuc(a1-3)]Glc
Outline: as §1

[30] = target: Fuc(a1-2)[Gal(a1-3)]Gal(b1-4)[Fuc(a1-3)]GlcNAc
Outline: as §1

[31] = target: Fuc(a1-2)[Gal(a1-3)]Gal(b1-4)[Fuc(a1-3)]GlcNAc(b1-3)GalNAc
Outline: as §1

[32] = target: Fuc(a1-2)[Gal(a1-4)]Gal(b1-4)GlcNAc
Outline: as §1

[33] = target: Fuc(a1-2)[GalNAc(a1-3)]Gal
Outline: as §1

[34] = target: Fuc(a1-2)[GalNAc(a1-3)]Gal(b1-3)GalNAc(a1-3)[Fuc(a1-2)]Gal(b1-4)GlcNAc
Outline: as §1

[35] = target: Fuc(a1-2)[GalNAc(a1-3)]Gal(b1-3)GalNAc(b1-3)Gal(a1-4)Gal(b1-4)Glc
Outline: as §1

[36] = target: Fuc(a1-2)[GalNAc(a1-3)]Gal(b1-3)GlcNAc
Outline: as §1

[37] = target: Fuc(a1-2)[GalNAc(a1-3)]Gal(b1-3)GlcNAc(b1-2)Man(a1-3)[Fuc(a1-2)[GalNAc(a1-3)]Gal(b1-3)GlcNAc(b1-2)Man(a1-6)]Man(b1-4)GlcNAc(b1-4)GlcNAc
Outline: as §1

[38] = target: Fuc(a1-2)[GalNAc(a1-3)]Gal(b1-3)GlcNAc(b1-2)Man(a1-3)[Fuc(a1-2)[GalNAc(a1-3)]Gal(b1-3)GlcNAc(b1-2)Man(a1-6)]Man(b1-4)GlcNAc(b1-4)[Fuc(a1-6)]GlcNAc
Outline: as §1

B1: AT1G73650(15) (Arabidopsis thaliana), F4HRY1 (protein)
chain: MGTVLDSHFLALTAIVTVIYQFIFFVITALFKFDQVTDFAGSTNFVILAVLTLVLKASWHFRQIVLTLLVVVWGLRLGIFLLMETRILQWGEDRRFDEQRGNIVRLIIFWTLQAVWVWTVSLPLTLVNASDGGGSLKPADVIGWTMETWVFGFLIEAAADQQKLSFKNSPENRGKWCDVGVWKYSRHPNYFGEMETLLWWGIFVAASPVLEGAEYLVIFGPLFLTLLLLFVSGIPLLEASADKKHGNSGAYRSYKKTTSPLILFPRGVYGNLPGWFKTVFLFEFPFYSRNLPQEGRLQNSKEKEVKDD
With B1 the “glycan array binding signal (z-score)” value [1] was 0.014, the “glycan array binding signal (z-score)” value [2] was -0.453 and the “glycan array binding signal (z-score)” value [3] was -0.475. The “glycan array binding signal (z-score)” value [4] was -0.182, the “glycan array binding signal (z-score)” value [5] was -0.048 and the “glycan array binding signal (z-score)” value [6] was 1.71. The “glycan array binding signal (z-score)” value [7] was -0.273, the “glycan array binding signal (z-score)” value [8] was -0.151 and the “glycan array binding signal (z-score)” value [9] was -0.429. For the same binder, the “glycan array binding signal (z-score)” value [10] was -0.149, the “glycan array binding signal (z-score)” value [11] was -0.553 and the “glycan array binding signal (z-score)” value [12] was -0.674. For the same binder, the “glycan array binding signal (z-score)” value [13] was 0.489, the “glycan array binding signal (z-score)” value [14] was -0.092 and the “glycan array binding signal (z-score)” value [15] was -0.635. For the same binder, the “glycan array binding signal (z-score)” value [16] was -0.411, the “glycan array binding signal (z-score)” value [17] was -0.546 and the “glycan array binding signal (z-score)” value [18] was 0.255. The “glycan array binding signal (z-score)” value [19] was -0.453, the “glycan array binding signal (z-score)” value [20] was -0.472 and the “glycan array binding signal (z-score)” value [21] was -0.4. For the same binder, the “glycan array binding signal (z-score)” value [22] was -0.073, the “glycan array binding signal (z-score)” value [23] was -0.406 and the “glycan array binding signal (z-score)” value [24] was 1.84. For the same binder, the “glycan array binding signal (z-score)” value [25] was 0.568, the “glycan array binding signal (z-score)” value [26] was -0.479 and the “glycan array binding signal (z-score)” value [27] was -0.263. The “glycan array binding signal (z-score)” value [28] was 0.189, the “glycan array binding signal (z-score)” value [29] was -0.494 and the “glycan array binding signal (z-score)” value [30] was -0.438. For the same binder, the “glycan array binding signal (z-score)” value [31] was -0.11, the “glycan array binding signal (z-score)” value [32] was 1.89 and the “glycan array binding signal (z-score)” value [33] was 0.027. For the same binder, the “glycan array binding signal (z-score)” value [34] was -0.534, the “glycan array binding signal (z-score)” value [35] was -0.314 and the “glycan array binding signal (z-score)” value [36] was 0.431. The “glycan array binding signal (z-score)” value [37] was -0.569 and the “glycan array binding signal (z-score)” value [38] was -0.562.
